Laboratory results published in the supplement of paper PMC4466236.
In all, about 33,000 sequences were measured (“E-score (dimensionless, -0.5 to 0.5)”: median about -0.058, highest 2% from about 0.35 on). This is one part of the list.

Each sequence was assayed on MvaT (assay: PBM 8-mer E-score (mean of HK and ME arrays) (E-score (dimensionless, -0.5 to 0.5)); higher = stronger relative binding preference; most listed sequences are background and not binding sites).
Protocol: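 Protein binding microarray: GST-tagged full-length MvaT (P. aeruginosa PAO1) bound to two universal double-stranded 60-mer arrays (ME and HK), each with a constant 25-mer primer and a variable 35-mer region covering all 8-mers. The 8-mer E-score (rank-based, range -0.5 to 0.5, >0.45 = specific binding) is the mean of the two arrays.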

Sequence | PBM 8-mer E-score
CAATTTGC | 0.0611
AAGCGTTA | 0.0994
ATTTAGAG | 0.0449
ACCTCAGT | -0.232
AGTGAGTC | -0.0914
AACTGTCT | 0.0705
CCGTTTAG | -0.00254
ATGGTGGA | -0.0135
CCTCAAAG | -0.0534
AGCAGTGA | -0.151
AGGGTCGA | -0.0855
GCTGGTCA | -0.205
ATATGCAG | 0.239
ACGCTAAC | 0.0546
GCGACCGC | -0.253
ATGCCGGC | -0.0385
GTGCTGGA | -0.194
CTAGATGA | -0.0874
CAGGCACA | -0.208
AGAGGTGC | -0.151
GAGGTTTA | -0.0268
GTAATAAC | 0.297
CCTGTGGA | -0.211
GCAAGATA | 0.156
AAGGAAGC | -0.151

Sequence | PBM 8-mer E-score
TAGAACCA | -0.0287
GTAGCAGA | 0.0283
CCCCCAAC | -0.358
ACCCCGCG | -0.175
ATCGGACC | -0.293
GACGCCAC | -0.14
CCCGCAGG | -0.303
TAGTACAA | 0.257
CCCGTGAG | -0.219
AAAAGCCA | -0.0988
CATCGGGG | -0.289
AAAGGCTG | -0.182
CGCACTTA | 0.0984
TCGGTACA | 0.0367
ACGTCAGG | -0.111
CACTTCTA | -0.0382
CTGATCAC | -0.174
AAGAACGA | -0.0544
GCTTGGTA | -0.156
AGGTCCTA | -0.0966
GGATGGGA | -0.168
CATGGTAC | -0.115
CGTGGAAC | -0.265
ATTGTGGA | 0.145
ACGTGAAC | 0.0465

Sequence | PBM 8-mer E-score
GACGGGGA | -0.109
CGCGGGCC | -0.213
CAGATGCC | -0.361
CCATTCAG | -0.169
CACTACAG | -0.15
GGTAACCA | -0.156
CGGAGTAC | -0.128
ATGTAGTC | 0.1
GCTTTGAA | 0.0627
TGATCCCA | -0.0498
CAAGGACC | -0.218
ATCCTCCC | -0.223
AGGCGGGG | -0.303
CATTACCA | 0.187
ACGTGTAA | 0.0481
AAGCGCAG | -0.126
ATTATTTA | 0.44
ATATTCGA | 0.333
TCTCTCCA | -0.0965
TCCCAGAA | -0.123
CCTTACTA | 0.0546
ACACTGTA | 0.223
CCCGAATC | -0.0385
TCGCCTCA | -0.171
GTATGCGA | 0.0803

Sequence | PBM 8-mer E-score
AGCGTACC | -0.279
ACAGATAA | 0.287
AATCAATC | 0.0516
CTCCGTTA | -0.0492
GATGTTAA | 0.277
GGTCATAA | -0.00707
ACGTCAAG | -0.0473
AAGGCACA | -0.151
ACCCACTA | 0.127
TAGGGTAA | 0.133
ACGTGAAA | 0.148
CGCCATTC | -0.00284
ATCATGAT | 0.08
CCTCCCCC | -0.38
CATCGAGG | -0.283
AGTGCCCC | -0.194
GTGCTCAA | -0.00452
AGAAAGTA | 0.233
GGCGCGAC | -0.109
CCGTGCAC | -0.194
AAATGCCA | -0.0338
CCCCGGTA | -0.122
CACCCCCC | -0.252
AGTATCCG | 0.0304
ATATCCGA | 0.164

Sequence | PBM 8-mer E-score
ACGGAGTC | -0.214
AAAACAGC | 0.154
GTCCGATA | -0.0596
CACGGACC | -0.247
AACCCTAG | -0.154
TGTCGCAA | -0.0286
GAATGAGC | -0.234
GAGCTGGC | -0.277
GAGGACGC | -0.293
CCGTAGTC | -0.0927
CGTCCAGC | -0.227
GCATGAGC | -0.287
ACACAGGA | -0.0572
ATTGTGGC | 0.0278
AAACGACC | -0.0897
AAACCTCA | -0.109
CACTTAGC | -0.0629
ACTTGTGG | 0.032
CCTGTTCA | -0.169
AAATTTTC | 0.309
CATGACTA | 0.0171
AATTAATG | 0.359
ACCTATCC | -0.0272
AAGGATCG | -0.27
CCCACAAG | -0.205

Sequence | PBM 8-mer E-score
CAAGGAGC | -0.364
CCGTGTCA | -0.0576
TCGACTAA | 0.0311
ATTCCTGA | 0.156
AAATGACA | 0.134
CTGCTACA | -0.0832
CGCGGAGA | -0.282
CCGGGGCC | -0.331
CCCCCCCC | -0.311
TCGAGACA | -0.124
CAAACTTC | 0.133
AGGTACTA | 0.0259
CCCTGGGC | -0.274
ATCTCGAA | -0.0688
ATTTCTGG | 0.0619
GGAGGATA | -0.111
CTGTGAGC | -0.0609
AATGAGGT | 0.0347
CCCTACAC | -0.212
CGTCATCA | -0.134
TACACGTA | 0.088
CTAGTCTC | -0.0794
ATAATAGC | 0.362
CAACGCAC | -0.131
GCTCCAAA | -0.0182

Sequence | PBM 8-mer E-score
ATTAATAA | 0.468
ATCTCCGG | -0.188
ATCCTATG | -0.143
AACGAGCA | -0.0139
AATCATGG | -0.0609
ATTTAAGG | 0.101
TGAGGGAA | -0.0751
AACGTCTC | -0.222
CTACGCTA | 0.0562
AATAGTCA | 0.168
AGCAGGCC | -0.328
GGAGGCGA | -0.253
AATCCTTG | 0.000406
AAAGGCAT | -0.109
AGCTGAGC | -0.262
CTGCGATC | -0.323
AATATCAC | 0.407
AAGTCAAC | -0.0526
CAGCGACC | -0.107
AGTTCTCG | -0.0838
ATTTGCTG | 0.187
TCGCCAAA | -0.0154
